These results are taken from the supplement of paper PMC10126150.

Sequences with one replicate were seen in a single cluster, so their values are uncertain.
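Note: ATP exposure 15 min at 22 °C before imaging.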

The data set relates to ATP. Kind of data set: switch fluorescence ratio, 500 uM ATP over buffer (Cy3 cluster intensity, sum of 5 cycles each) (fold (ratio)); higher = stronger signal-on switching upon ATP binding; sequences stand for … in TCGTCGGCAGCGTCAGATGTGTATAAGAGACAGTTTTTTTTTTTTTTTTTTTTTTTTT…TC. As to conditions: aptamer strand: ATP DNA aptamer (quencher-CACCTGGGGGAGTATTGCGGAGGAAGG + anchor), 100 nM annealed; ATP concentration: 500 uM; one replicate. In short, it runs like this:
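Cy3-labelled switching-strand clusters on a modified Illumina MiSeq flow-cell were annealed to 100 nM quencher-labelled ATP aptamer and imaged first in selection buffer, then after 15 min with 500 uM ATP at 22 °C. NaOH stripping and re-annealing separated each of five buffer/ATP cycles, and clusters outside 100-1000 RFU were excluded. The fluorescence ratio sums target-cycle Cy3 intensity over buffer-cycle Cy3 intensity per cluster and averages it per switch-domain sequence.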
For the sequence AGGAGTGCGT, the switch fluorescence ratio came out at 1.01.
Under CTGTTGAATG stands 0.962; under ACTAACAAGC, 1.09; under AATCGAACAG, 1.07.
For the sequence GCGACGATTG, the switch fluorescence ratio was found to be 1.05.
Consider CTCACTATTG, for which the switch fluorescence ratio was determined as 0.988.
The value for CAAAGCCATG was 1.03.
For the sequence CAGCATGCGG, the switch fluorescence ratio is 1.
The value for TGCAAAAGGA was 0.938; that for GTTGCTCATT was 1.07.
GAAGGCTTCA: the switch fluorescence ratio came out at 0.973.
Regarding TGTTGTTCCG, the switch fluorescence ratio worked out at 0.979.
TCGATCAGGC: the switch fluorescence ratio was 1.05.
The value for AAGGATTTT was 0.97.
Turning to CAATCTAAG, the switch fluorescence ratio stood at 0.998.
The value for GGGAGTTCTT was 0.975.
The value for GTCAAAACTT was 1.03.
In the case of GTTAGATAGA, the switch fluorescence ratio came to 1.02.
The value for TTACCATGAC was 1.15.
Under CGCTCATGCA stands 1; under ATGTGAGA, 1; under TTTGTAAG, 0.975.
Consider AGAAGTCACG, for which the switch fluorescence ratio came out at 1.07.
Under AAGCGGACCT stands 1.25.
The value for CTGACTATTG was 0.996.
On to AGGATGCTAC, for which the switch fluorescence ratio is 1.13.
The value for AGTCGACCAG was 1.04; that for ACGCCGACAC was 1.69.
As to CGTTCCATTC, the switch fluorescence ratio is 1.08.
Under CCAGGTTATT stands 1.08; under GTAGACAGGT, 0.998; under CATTGAGCCG, 0.986.
Under TACTAGGCT stands 1.02.
CAGATTTTTC: the switch fluorescence ratio was found to be 0.973.
Under TCGAGCCTAC stands 1.68.
Regarding TGGGAGCAAA, the switch fluorescence ratio stood at 1.01.
Under GCACTAGTCA stands 1.05.
Under TCTCCACCCC stands 1.17.
The value for ACGTTTTGGA was 0.971; that for GTTGGGAGTT was 0.98.
Consider CCAATAGTTG, for which the switch fluorescence ratio came to 1.
Under AACAGTGGTA stands 1; under GAAGGATCCG, 1.05; under CGCATACGTA, 1.34.
Under TTCGGTAAT stands 1.63; under CTCGCGTGTC, 1.03.
Under GGCCAGGAGG stands 0.948; under AGCAGAGAAG, 0.952.
Regarding GATAAGCTGG, the switch fluorescence ratio worked out at 1.
For ACTAATCT, the switch fluorescence ratio was 1.04.
The value for ATACCATAAG was 1.05.
With CTAGTGCTTT, the switch fluorescence ratio came to 1.02.
The value for TGAGGCATAG was 1.28.
Under GGGGACTGCT stands 0.976.
Turning to TACTACTGCA, the switch fluorescence ratio was found to be 1.19.
Take GACAACCTG: the switch fluorescence ratio is 1.12.
Under TAATACGATA stands 1.17; under CGTCTTAGGT, 0.933; under CCTTTCAGCT, 1.1.
For the sequence AGTTTATCCC, the switch fluorescence ratio is 0.973.
In the case of GTCGACGACT, the switch fluorescence ratio was 0.991.
The value for GTCCGGCAGC was 1.11; that for AGGCTACAGT was 1.
The value for TCCGAGAAAC was 1.79; that for AAAGCCCAAG was 1.12; that for CTTCGAGCCG was 0.953.
Under CGTCATGCAG stands 1.06; under CTGAGACGTT, 1.
For the sequence TTATGCCCTG, the switch fluorescence ratio turned out to be 0.989.
For AGCCGGGGCA, the switch fluorescence ratio came to 0.977.
In the case of TTATAGCTGC, the switch fluorescence ratio was 1.15.
The value for ACGCATGTTT was 0.987; that for GCATATCTAA was 1.05.
Take TAAAACTTGA: the switch fluorescence ratio came out at 1.
Under ATTTAACTGA stands 0.989; under ATGTCATAA, 0.996; under TCCGGATTAT, 0.995.
The value for ATACGGCTCT was 0.998; that for GGCTGATCAG was 1.03; that for CTTAACTCGA was 0.971.
With ACGTCCAGGT, the switch fluorescence ratio was 1.7.
Under CTATCCTTCG stands 1.55; under CATGCGGACA, 1.03; under AGCCACGGTC, 1.18.
Under TAATGGTGGT stands 1.05; under GATCATGATC, 1.02; under ATGTACTTGT, 1.01.
The value for TGTGGAGAGT was 1.18; that for GTGGTAGCGT was 0.992.
Turning to GGGAGTTCAT, the switch fluorescence ratio turned out to be 1.02.
The value for CGAGTATTTC was 0.977; that for ACACGCACAT was 1.61; that for TGATTGAGAC was 1.06.
Under GCCACTGGAG stands 1.02; under GCGTCAGCCC, 0.987; under ACCGGAAGGT, 1.09.
Under TACTGTGTGA stands 1.01; under ATGACTACGG, 1.16; under CGGCACCGGC, 1.11.
For the sequence CGGGTAAATT, the switch fluorescence ratio was 0.963.
For GTGGGACCTC, the switch fluorescence ratio amounted to 1.
The value for AGGCTAACTC was 1.02; that for AACCGACTGT was 1.13.
Under TTACCTAGTG stands 1.05.
The value for CTTAGTGGGA was 1.04.
In the case of GTGACGCAAG, the switch fluorescence ratio is 1.1.
Under TGAATGGCC stands 1.02.
Under GCCATATTTG stands 1.01; under GGGCTCCTCT, 1.03; under GCATGTCGCG, 1.01.
The value for GCATAACAA was 1; that for TAAAACTGG was 1.02.
Turning to GATCCCACGT, the switch fluorescence ratio was found to be 1.05.
The value for GTGGCAAATT was 1.07; that for GTCTGGTTTT was 0.974.
The value for TTCAGTGCGT was 1.04.
Under CGGTAGAAAA stands 1.03.
Regarding TCTCCCACAA, the switch fluorescence ratio turned out to be 2.74.
The value for TAGTTCGGGT was 1.05.
In the case of TTCGGGCAAG, the switch fluorescence ratio came out at 1.16.
